Results: US20230046078A1, “METHODS OF USING SUBSTITUTED FLAVONES FOR TREATING BONE DISORDERS” (EMORY UNIVERSITY, priority 2021, published 2023)

What was measured:
Assay type in all cases: cell-based, Murine
MC3T3-E1 cells [1] = conditions: OIM, BDNF 50 ng/ml or 7,8 DHF 0.5 μM; for osteoblast cell differentiation (ALP staining): 14 days
Experimental: The Cells were washed in PBS twice, fixed for 10 minutes with fixing buffer at room temperature, and stained with ALP staining with the TRACP&ALP double-staining kit (TaKaRa, Japan, Cat. #MK300).
Then the cells were stained with 2% Alizarin Red S solution (Sigma, St. Louis, Mo., USA) to detect calcification.

MC3T3-E1 cells [2] = conditions: OIM-induced, 4 days; BDNF 50 ng/ml or 7,8 DHF 0.5 μM
RAW264.7 cells [3] = test: RANK-L-induced RAW264.7 osteoclastogenesis (TRAP staining); conditions: 30 ng/ml RANK-L, day 4; BDNF 50 ng/ml or 7,8 DHF 0.5 μM
Experimental: (§1) The medium was changed to α-MEM with 5% FBS, 0.1% penicillin/streptomycin. The receptor activator of NF-κB ligand (RANK-L, 30 ng/ml) was added to induce osteoclast differentiation.
The cells were washed in PBS twice, fixed in fixing solution for 10 minutes at room temperature, and then stained the TRAP activity with the TRACP&ALP double-staining kit (TaKaRa, Japan, Cat. #MK300).
Moreover, RANK-L independently induces RAW264.7 cell osteoclastic differentiation, which efficiently generates osteoclasts in vitro.

RAW264.7 cells [4] = test: Western blotting of RANK-L-induced RAW 264.7 cells; conditions: RANK-L-induced RAW264.7 cells
Experimental: as §1

| Compound | osteoblast cell differentiation (ALP staining) (MC3T3-E1 cells [1]) | mineralization / calcium deposition (Alizarin Red S staining) (MC3T3-E1 cells [1]; 21 days) | p-C/EBPβ expression (MC3T3-E1 cells [2]) | total C/EBPβ expression (MC3T3-E1 cells [2]) | RANK-L-induced increase of multinucleated osteoclastic cells (RAW264.7 cells [3]) | C/EBPβ level (RAW264.7 cells [4]) | C/EBPβ/AEP pathway (RAW264.7 cells [4]) | p-TrkB and p-MAPK and p-AKT signaling (RAW264.7 cells [4]) |
| --- | --- | --- | --- | --- | --- | --- | --- | --- |
| BDNF: Brain-derived neurotrophic factor, a neurotrophin; TrkB ligand | further escalated | strongly stimulates | distinctly repressed | distinctly repressed | diminished | greatly reduced | inhibited | activated |
| O=c1cc(-c2ccccc2)oc2c(O)c(O)ccc12 [7,8-DHF] | further escalated | – | distinctly repressed | distinctly repressed | diminished | greatly reduced | inhibited | activated |
